The target of assay [1] is T1, TWEAKR protein (TPP-2305) (Homo sapiens, UniProt Q9NP84).
T1 construct: TPP-2305; hTNFRSF12Aaa28-80; Human; 30R-AT080; 168; purchased Fitzgerald Inc 30R-AT080
Description: Biacore monovalent KD with TWEAKR protein. Conditions: first order 1:1 binding model. Here is the method:
Binding affinities of anti-TWEAKR antibodies were determined by surface plasmon resonance analysis on a Biacore T100 instrument (GE Healthcare Biacore, Inc.). Antibodies were immobilized onto a CM5 sensor chip through an indirect capturing reagent, anti-human IgG(Fc). Reagents from the “Human Antibody Capture Kit” (BR-1008-39, GE Healthcare Biacore, Inc.) were used as described by the manufacturer. Anti-TWEAKR antibodies were injected at a concentration of 10 μg/ml at 10 μl/min for 10 sec.
Sensorgrams were generated after in-line reference cell correction followed by buffer sample subtraction. The dissociation equilibrium constant (KD) was calculated based on the ratio of association (kon) and dissociation rated (koff) constants, obtained by fitting sensorgrams with a first order 1:1 binding model.
In general terms: Surface plasmon resonance follows binding to a sensor surface in real time, without labels.

In assay [2] the test system is HEK293 cells transfected with a NF-kappaB reporter construct. The experiment in a line: NF-kappaB reporter gene assay. It is filed as cell-based. Conditions: 11 identified antibodies, human IgG1. Here is the method: NF-kappaB reporter gene assays were performed to assess the agonistic activity of all 11 identified antibodies (human IgG1). HEK293 cells were transiently transfected with a NF-kappaB reporter construct (BioCat, cat. No. LR-0051-PA) using 293fectin according to manufacturer's instruction. White poly-lysine coated 384well plates (BD) were seeded with transfected cells in F17 media (serum-free; Invitrogen) at 37C, 5% CO2. On the next day cells were stimulated with purified antibodies at different concentrations for 6 h and subsequently a luciferase assay was carried out following standard procedures.

B1: TPP-2077: anti-TWEAKR human IgG1; heavy chain SEQ ID NO: 52, light chain SEQ ID NO: 51 (antibody, listed as Homo Sapiens)
heavy: EVQLLESGGGLVQPGGSLRLSCAASGFTFSPYPMMWVRQAPGKGLEWVSYISPSGGKTHYADSVKGRFTISRDNSKNTLYLQMNSLRAEDTAVYYCARGGDTYFDYFDYWGQGTLVTVSS[human IgG1 constant region not shown]
light: DIQMTQSPATLSASVGDRVTITCRASQSISSYLNWYQQKPGKAPKLLIYAASSLQSGVPSRFSGSGSGTDFTLTISSLQPEDFATYYCQQSYSSPGITFGPGTKVEIKRTVAAPSVFIFPPSDEQLKSGTASVVCLLNNFYPREAKVQWKVDNALQSGNSQESVTEQDSKDSTYSLSSTLTLSKADYEKHKLYACEVTHQGLSSPVTKSFNRGEC
In assay [1], B1 displayed a ka of 3e+06 M⁻¹ s⁻¹ and a kd of 0.086 s⁻¹.

B2: TPP-883: anti-TWEAKR human IgG1 from phage display library; heavy chain SEQ ID NO: 72, light chain SEQ ID NO: 71 (antibody, listed as Homo Sapiens)
heavy: EVQLLESGGGLVQPGGSLRLSCAASGFTFSPYPMMWVRQAPGKGLEWVSYISPSGGKTHYADSVKGRFTISRDNSKNTLYLQMNSLRAEDTAVYYCARGGDGYFDYFDYWGQGTLVTVSSASTKGPSVFPLAPSSKSTSGGTAALGCLVKDYFPEPVTVSWNSGALTSGVHTFPAVLQSSGLYSLSSVVTVPSSSLGTQTYICNVNHKPSNTKVDKRV[human IgG1 Fc not shown]
light: AQDIQMTQSPATLSASVGDRVTITCRASQSISSYLNWYQQKPGKAPKLLIYAASSLQSGVPSRFSGSGSGTDFTLTISSLQPEDFATYYCQQSYSSPGITFGPGTKVEIKRTVAAPSVFIFPPSDEQLKSGTASVVCLLNNFYPREAKVQWKVDNALQSGNSQESVTEQDSKDSTYSLSSTLTLSKADYEKHKLYACEVTHQGLSSPVTKSFNRGEC
In assay [1], B2 displayed a ka of 4.4e+06 M⁻¹ s⁻¹ and a kd of 0.91 s⁻¹. The “agonistic activity / in vitro efficacy” value in assay [2] is “strongest in vitro efficacy”.

(Values after patent US20160237160A1, “ANTI-TWEAKR ANTIBODIES AND USES THEREOF” (BAYER PHARMA AKTIENGESELLSCHAFT, priority 2013, published 2016).)
